Screen size: about 340,000 compounds; about 6,900 (2%) were called active. Rule as the data show it: active = inhibition above about 30%; inactive = below that, where a call was filed. The list shows a part of the results, in another mix than the full data. Entries without a call were filed so in the source.

For orientation: inhibition means the change of the read-out against control, counted positive when it falls.

Chain of UniProt P14416 (P14416 whole entry, looked up): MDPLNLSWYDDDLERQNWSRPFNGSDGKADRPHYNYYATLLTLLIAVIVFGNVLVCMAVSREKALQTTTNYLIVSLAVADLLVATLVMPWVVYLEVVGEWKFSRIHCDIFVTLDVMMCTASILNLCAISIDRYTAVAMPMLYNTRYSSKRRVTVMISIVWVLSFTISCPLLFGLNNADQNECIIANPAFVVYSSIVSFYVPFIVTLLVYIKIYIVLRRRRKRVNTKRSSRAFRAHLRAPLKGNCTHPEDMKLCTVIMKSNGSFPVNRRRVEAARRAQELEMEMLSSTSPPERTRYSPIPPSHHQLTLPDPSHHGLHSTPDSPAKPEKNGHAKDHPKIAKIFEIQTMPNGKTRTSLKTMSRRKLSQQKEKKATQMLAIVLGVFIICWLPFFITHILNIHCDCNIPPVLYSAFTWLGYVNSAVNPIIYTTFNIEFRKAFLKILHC

The test has as its target D(2) dopamine receptor (Homo sapiens) (UniProt P14416). The experiment in a line: HTS Assay for Allosteric Antagonists of the Human D2 Dopamine Receptor: Primary Screen for Antagonists. Also: 0% is about no effect. Particulars: HEK293 TREx D2 cells, calcium flux, dopamine EC80; at 10 µM; stronger effect = higher value. In outline:
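Overnight-induced (tetracycline, 30 C) HEK293 T-REx cells carrying force-coupled D2 receive a no-wash calcium dye, then compound, then EC80 dopamine at 180 s; signals are read kinetically throughout.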
Take `CCOc1ccc(CCNC(=O)c2c(C)oc3ncn(C)c(=O)c23)cc1`: the inhibition was determined as 1.04%.
For `O=C(COc1ccc(F)cc1)NCCc1nc2ccccc2[nH]1` the value was -14.1%; for `O=c1c2sccc2n(Cc2cc(=O)n3ccccc3n2)c(=O)n1-c1cccc(C(F)(F)F)c1`, -12.5%.
With `Cc1ccc2oc(-c3cccc(NC(=O)c4sc5c([N+](=O)[O-])cccc5c4Cl)c3)nc2c1`, the inhibition is 6.78%.
With `Cc1cnc(=O)[nH]c1SCC(=O)Nc1nc2ccccc2s1`, the inhibition amounted to 0.622%.
The result for `Cc1ccc(-c2nnc(SCC(=O)NCc3ccccc3)nc2-c2ccc(C)cc2)cc1` reads 25.4%; that for `Cc1ccccc1-c1cc(C(=O)NCc2ccc3c(c2)OCO3)n(CC2CC(c3cccnc3)=NO2)n1` (centres undefined), active: 82.9%; that for `CNS(=O)(=O)c1cc(-c2nnc(Nc3cc(C)ccc3C)c3ccccc23)ccc1C`, -0.897%.
The result for `Cc1cc2c(cc3c(SCC(=O)Nc4cccc(Cl)c4C)nnc(C)n32)o1` reads 1.31%.
`CCc1ccc(C(=O)NC(Cc2c[nH]c3ccccc23)C(=O)OCC(=O)c2ccc(Br)cc2)cc1` (centres undefined): the inhibition came out at 0.0914%.
For `CCOC(=O)c1cnc2ccccc2c1Nc1cccc(OC)c1` the value was -2.58%; for `CCN1CCN(C(=O)c2ccc3c(c2)N(Cc2ccccc2F)C(=O)c2ccccc2S3=O)CC1` (centres undefined), -18.2%.
The result for `Cc1ccc(-n2c3c(cc(C(=O)Nc4cccc(Cl)c4)c2=O)C(=O)CC(C)(C)C3)cc1` reads -7.78%; that for `Clc1ccc(CN2CCN(c3ncccn3)CC2)c(Cl)c1`, active: 89.8%.
For `Cc1ccc(Cl)cc1N1CCN(C(=O)CCCCCn2c(=O)[nH]c3ccccc3c2=O)CC1` the value was -15.7%; for `COc1ccccc1N1CCN(Cc2ccc(OC)c3ccccc23)CC1`, active: 72.3%.
Regarding `CCc1ccc(NC(=O)C2CCCN(S(=O)(=O)c3c(C)noc3/C=C/N(C)C)C2)cc1` (centres undefined), the inhibition was 11.7%.
The result for `CCOc1ccccc1-c1nc(SCC(=O)c2ccc(OC)c(Br)c2)n[nH]1` reads -0.221%.
The result for `CC(C)OC(=O)c1cccnc1SCC(=O)Nc1ccc(C(F)(F)F)cc1Cl` reads 26.9%; that for `CCOC(=O)c1c(-c2ccccc2)csc1NC(=O)c1cc(-c2ccc(C)c(F)c2)on1`, 16.6%; that for `Cc1cccc(C(=O)Nc2ccc(OCc3cc(=O)n4ccsc4n3)cc2)c1`, 11.1%.
For `O=C(NC1CCCCCC1)C1c2ccccc2C(=O)N1Cc1ccccc1Cl` (centres undefined) the value was 15.9%; for `CCN(CC)S(=O)(=O)c1ccc2c(c1)N(CC(=O)N1CCN(c3ccc(Cl)cc3)CC1)C(=O)CO2`, -5.02%.
Turning to `O=C(O)[C@@H]1[C@H]2C[C@H]3c4[nH]c5ccccc5c4CCN3C[C@@H]2CC[C@@H]1O`, the inhibition is active: 68%.
The result for `CCOc1ccc(NC(=O)CN(C)c2nnnn2-c2ccccc2)cc1OCC` reads active: 35.1%; that for `CC(=O)N/C(=C/c1ccc(Cl)cc1)C(=O)NCCc1c[nH]c2ccccc12`, active: 31%; that for `COC(=O)CSc1ncc2c(n1)-c1ccccc1N(Cc1cccc(F)c1)S2(=O)=O`, 0.952%.
The result for `CCN1C(=O)c2ccccc2S(=O)(=O)c2ccc(C(=O)NCc3ccccc3Cl)cc21` reads -8.55%; that for `COc1cccc(CNC(=O)c2c(C)oc3nc(C)nc(N4CCOCC4)c23)c1`, 6.12%.
As to `CCOC(=O)C1CCN(C(=O)CSc2n[nH]c(-c3ccc(F)cc3)n2)CC1`, the inhibition was -21.8%.
Consider `O=C(Cn1c(=O)oc2cc(S(=O)(=O)N3CCCC3)ccc21)NCc1ccc(F)cc1`, for which the inhibition is -2.49%.
For `CCc1cccc(C)c1NS(=O)(=O)c1c(C)nc2sccn2c1=O` the value was -1.93%.
As for `Cc1cc(C(=O)C(=O)Nc2nnc(C(C)C)s2)c(C)n1-c1ccccc1`, the inhibition stood at 1.33%.
For `CC(=O)c1cccc(NC(=O)C(C)n2c(=O)cc(-c3ccccc3)c3c(C)nn(C)c32)c1` (centres undefined) the value was 12.1%.
For `CCOc1cccc(OCCCn2c(-c3ccc(Br)cc3)nc3ccccc3c2=O)c1` the value was 16.6%; for `COc1cccc(CNC(=O)c2ccc(NC(=O)N3CCCCc4ccccc43)cc2)c1OC`, 0.323%; for `CCOc1ccc(-c2cc(-c3nc(-c4ccc(C)cc4)no3)[nH]n2)cc1`, -14.9%.
Turning to `CCc1cccc(C)c1NC(=O)Cn1c(=O)n(-c2cccc(C)c2)c(=O)c2c1c1cc(C)ccc1n2C`, the inhibition was 4.2%.
Consider `COc1ccc(Cl)cc1N(C)C(=O)Cc1noc2ccc(C)cc12`, for which the inhibition was -4.15%.
For `Cc1cccc(Cc2c(C)nc3nc(SCC(=O)NCc4ccc(F)cc4)nn3c2C)c1` the value was 4.81%; for `CN(C)/C=N/c1cc(=O)[nH]c(=O)n1Cc1ccccc1`, active: 40.1%.
For `COC(=O)c1c(NC(=O)c2nc(SC)ncc2Cl)sc2c1CCCC2` the value was 10.7%; for `CC(=O)c1cc(-c2ccccc2)n(CCC(=O)NCCc2ccccc2)c1C`, -7.01%; for `CC(=O)NCc1nc2cccnc2n1Cc1ccccc1`, -2.69%.
Regarding `Cc1ccc(Cc2nc3ccccc3nc2SCC(=O)NCCc2ccccc2)cc1`, the inhibition was -8.3%.
The result for `Cc1nc2c(-c3ccc(F)cc3)c(C)nn2c(C)c1CCC(=O)N1CCN(c2ccc(F)cc2)CC1` reads -5.7%.
For `Cc1cccc(CCNC(=O)c2ccc3c(c2)nc2n3CCCCC2)c1` the value was 20.6%; for `Cc1oc(-c2cccc(Cl)c2)nc1CSc1nnc(C)n2c1cc1occc12`, 0.442%; for `CCN1C(=O)c2ccccc2Sc2ccc(NC(=O)Cc3ccc(OC)cc3)cc21`, 26.3%.
The result for `CCOc1ccc(NCc2cccn2-c2nnc(N3CCC(C(=O)NCc4cccc(OC)c4)CC3)s2)cc1` reads 6.27%; that for `CC(C)CC(=O)Nc1nnc2n1CCS2`, 20.2%.
For `CCCn1cc(S(=O)(=O)c2cc(C)ccc2C)c(=O)c2cc(F)c(N3CCCCCC3)cc21`, the inhibition worked out at 6.68%.
In the case of `COc1ccc(-n2nnc(C(=O)Nc3ccccc3F)c2N)cc1`, the inhibition was -3.41%.
Consider `COc1cccc(NC(=O)C(=O)NCCc2csc3nc(-c4ccccc4C)nn23)c1`, for which the inhibition is -7.8%.
`CCc1ccccc1N(c1nc(-c2ccc(OC)c(OC)c2)no1)c1nc(-c2ccc(OC)c(OC)c2)no1`: the inhibition is -0.716%.
For `CC(C)(C)OC(=O)N1CCC(c2c(C(=O)NCc3ccccn3)cnn2-c2ccc(F)cc2)CC1` the value was -5.24%.
For `CC1CCCN(Cc2ccc(OCc3ccccc3)cc2)C1` (centres undefined) the value was active: 46.3%.
The result for `CCN(CC)CCSc1nnc2c3ccccc3n(Cc3ccccc3)c2n1` reads active: 60.3%; that for `Cc1cc(C)c2c(=O)cc(C(=O)Nc3ccc(S(=O)(=O)Nc4onc(C)c4C)cc3)oc2c1`, 11.6%; that for `COc1ccc2c(c1)c1c(c(=O)n(-c3cccc(C)c3)c(=O)n1CC(=O)N1CCCC1)n2C`, 7.43%.
Turning to `CCC(C)NC(=O)c1ccc2c(c1)N=C(C)c1cc(C)ccc1S2` (centres undefined), the inhibition was -0.608%.
The result for `Cc1ccc2c(=O)cc(C(=O)Nc3c(C(=O)c4ccccc4)oc4ccccc34)oc2c1C` reads -2.48%.
Regarding `CN1C(=O)Cc2cc(S(=O)(=O)CCC(=O)N3CCN(c4cccc(Cl)c4)CC3)ccc21`, the inhibition was -0.137%.
As to `CCc1ccc(NC(=O)c2c(C(=O)Nc3ccccc3)sc3nc(C)cc(=O)n23)cc1`, the inhibition was -3.3%.
For `COc1cccc(NS(=O)(=O)c2cc3c4c(c2)C(C)C(=O)N4CCC3)c1` (centres undefined) the value was 14%; for `COc1cc(-c2noc(C3CC(=O)N(c4cc(C)ccc4C)C3)n2)cc(OC)c1OC` (centres undefined), 15.9%.
`Cc1ccsc1CCN1C(=O)N(c2ccc(F)cc2)C(=O)C1CC(=O)Nc1ccccc1` (centres undefined): the inhibition stood at 8.44%.
`COc1cccc(-c2cc(C(=O)N3CCN(c4ccc(F)cc4)CC3)no2)c1`: the inhibition is -0.335%.
The result for `COC(=O)CC(NS(=O)(=O)c1cccs1)c1cccc2ccccc12` (centres undefined) reads active: 45.9%.
With `CCc1ccc(NC(=O)C2CCCN(S(=O)(=O)c3cccc4nonc34)C2)cc1` (centres undefined), the inhibition was determined as 13.3%.
For `Cc1cc(C)c(NS(=O)(=O)c2cc(-c3cnc(C4CC4)o3)ccc2C)c(C)c1` the value was 5.31%; for `COc1ccc(CNC(=O)C2CCN(S(=O)(=O)c3ccc4nc5c(c(C(=O)O)c4c3)CC(C)CC5)CC2)cc1` (centres undefined), -11.5%; for `CCc1nn2c(=O)cc(COC(=O)C3CCCCC3)nc2s1`, 13%.
For `COc1cccc(NC(=O)c2nnn(Cc3ccc(OC)c(Br)c3)c2N)c1` the value was -21.3%.
For `CCn1cc(C(=O)NCc2ccccc2OC)c(=O)c2cc(S(=O)(=O)N3CCCCCC3)ccc21`, the inhibition is -0.757%.
For `CCOC(=O)c1cc(-c2ccccc2)n(CCCC(=O)Nc2ccc(C)cc2Cl)c1C` the value was -10%.
On to `CN(C(=O)c1ccc(COc2ccccc2Br)o1)c1ccccc1`, for which the inhibition is active: 44.2%.
For `COc1ccc(-c2nnc(SCC(=O)Nc3cccc(Cl)c3C)nc2-c2ccc(OC)cc2)cc1` the value was -24.6%.
The result for `COc1ccc(NC(=O)CCNS(=O)(=O)c2ccc3c(c2)CCN3C(=O)C2CC2)cc1Cl` reads -25.7%.
With `Cc1cc(C)c(NC(=O)Cn2nnc(C(=O)Nc3ccc(F)cc3F)c2N)c(C)c1`, the inhibition was 5.98%.
The result for `COc1ccc(-c2cc(OC(=O)c3cccc(C)c3)c3c(C)oc(C)c3c(=O)c2)cc1` reads 11.1%.
`OCCC1CN(Cc2cccc(O)c2)CCN1CCc1ccccc1` (centres undefined): the inhibition is active: 54.8%.
For `Cc1ccc(CNC(=O)c2ccc3c(c2)nc2n3CCCC2)cc1`, the inhibition is 8.92%.
For `Cc1ccc(CNc2ncnc3c2cnn3-c2ccc(C)cc2C)cc1` the value was 16.1%; for `CC(=O)Nc1ccc(NC(=O)c2c(C)nn(-c3ccccc3)c2-n2cccc2)cc1`, -1.79%.
The result for `COC(=O)CN1C(=O)CSc2ccc(S(=O)(=O)Nc3c(C)cc(C)cc3C)cc21` reads 0.401%; that for `CCOC(=O)c1ccc(NC(=O)CSc2nc(-c3cccs3)cc(C(F)(F)F)c2C#N)cc1`, -17.7%.
For `CCS(=O)(=O)c1nc(S(=O)(=O)c2ccc(C)cc2)c(NCC(C)C)s1` the value was -11.9%.
On to `CCOC(=O)N1CCc2c(sc(NCc3sccc3C)c2C(=O)Nc2cc(Cl)ccc2OC)C1`, for which the inhibition was -5.43%.
The result for `O=C1CN(C(=O)COc2ccc(Cl)cc2)C(c2ccc(F)cc2)c2cc(Br)ccc2N1` (centres undefined) reads 10.7%; that for `CC(=O)C1=C(c2ccc(Cl)c(Cl)c2)N(C(C)=O)n2cnnc2S1`, -14.5%; that for `Cc1ccc(NC(=O)N2CCN(Cc3nc4ccc(C)cc4o3)CC2)c(Cl)c1`, -7.99%.
On to `CCS(=O)(=O)c1oc(-c2ccc(F)cc2)nc1S(=O)(=O)c1ccc(Br)cc1`, for which the inhibition is -3.61%.
`CC(Nc1ccc(-c2nc(-c3ccco3)no2)cc1[N+](=O)[O-])c1ccccc1` (centres undefined): the inhibition is 5.84%.

The values are drawn from PubChem BioAssay AID485344 (National Center for Advancing Translational Sciences (NCATS), 2010).
